Measured values from paper PMC4336329 (PLoS ONE, 2015).
Screen size: about 310,000 compounds; about 14,000 (4.5%) showed an effect of 50% or more. Effects have a minus sign here. This is one part of the list.

Target: human ether-à-go-go-related gene (hERG) potassium channel (human, UniProt Q12809)
Experiment: primary screen, population patch clamp on CHO cells stably expressing hERG
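Also: peak tail current of the secondary pulse compared with the same well before compound.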

Sequence of human ether-à-go-go-related gene (hERG) potassium channel (Q12809 whole entry, looked up): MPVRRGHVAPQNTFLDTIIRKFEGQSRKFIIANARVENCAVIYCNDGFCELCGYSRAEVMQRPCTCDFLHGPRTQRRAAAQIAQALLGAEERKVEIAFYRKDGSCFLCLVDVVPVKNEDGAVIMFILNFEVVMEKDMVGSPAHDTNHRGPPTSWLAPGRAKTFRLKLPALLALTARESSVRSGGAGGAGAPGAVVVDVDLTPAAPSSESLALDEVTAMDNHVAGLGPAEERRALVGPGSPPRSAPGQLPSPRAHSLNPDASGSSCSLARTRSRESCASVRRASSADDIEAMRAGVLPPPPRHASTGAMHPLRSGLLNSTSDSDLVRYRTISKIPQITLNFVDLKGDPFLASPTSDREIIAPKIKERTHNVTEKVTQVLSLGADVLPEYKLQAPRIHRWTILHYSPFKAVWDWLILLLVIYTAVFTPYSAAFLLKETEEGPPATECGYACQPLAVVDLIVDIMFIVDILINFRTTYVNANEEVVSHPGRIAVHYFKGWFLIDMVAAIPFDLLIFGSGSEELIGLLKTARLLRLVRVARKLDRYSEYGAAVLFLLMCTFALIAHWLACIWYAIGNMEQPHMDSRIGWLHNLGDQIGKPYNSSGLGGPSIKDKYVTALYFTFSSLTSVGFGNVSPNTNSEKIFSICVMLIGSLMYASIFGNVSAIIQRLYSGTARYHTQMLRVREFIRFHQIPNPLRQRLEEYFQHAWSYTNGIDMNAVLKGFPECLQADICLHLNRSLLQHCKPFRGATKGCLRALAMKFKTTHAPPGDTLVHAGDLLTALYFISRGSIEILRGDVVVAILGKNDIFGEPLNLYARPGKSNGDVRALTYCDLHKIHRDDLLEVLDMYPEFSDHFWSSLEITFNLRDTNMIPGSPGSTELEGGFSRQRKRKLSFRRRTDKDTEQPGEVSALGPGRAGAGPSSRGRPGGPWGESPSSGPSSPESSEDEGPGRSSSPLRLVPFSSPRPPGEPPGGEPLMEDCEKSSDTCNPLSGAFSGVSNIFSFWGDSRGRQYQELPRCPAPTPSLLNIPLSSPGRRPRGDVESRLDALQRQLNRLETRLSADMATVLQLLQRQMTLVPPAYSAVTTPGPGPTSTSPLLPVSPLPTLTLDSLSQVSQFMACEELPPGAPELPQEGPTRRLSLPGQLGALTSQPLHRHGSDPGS

| Structure (SMILES) | hERG current change (%, negative = inhibition) at 10uM [%] |
| --- | --- |
| CS(=O)(=O)N1CCc2cc(C(=O)N3CCN(c4ccc(F)cc4)CC3)ccc21 | -16.3 |
| Cc1ccc(-c2ccc(S(=O)(=O)NCC3CCCO3)cc2)cc1 (stereo not shown) | 26.2 |
| Cc1cc(=O)n2nc(N3CCCC3C(=O)Nc3cccc(F)c3)sc2n1 (stereo not shown) | -26.4 |
| COCCNC(=O)C1CCC(=O)N(c2ccc(OC)cc2)C1c1ccc(OC)c(OC)c1 (stereo not shown) | 0.796 |
| O=C(O)c1cccc(Cn2c(Cl)c(/C=N/Nc3ccccc3)sc2=O)c1 | 39.6 |
| Cc1cccc(C)c1NC(=S)N/N=C1\CC2CC=CC12 (stereo not shown) | -14.9 |
| O=C1NCCSC1c1ccccc1 (stereo not shown) | 19.1 |
| Nc1c(C(=O)Nc2ccc3c(c2)OCCO3)nnn1Cc1ccc(F)cc1 | -2.38 |
| O=C(Nc1ccccc1C(=O)N1CCN(c2cccc(Cl)c2)CC1)C1=CSCCO1 | -21.1 |
| COc1ccc(CCNC(=O)CSc2ccc3ccccc3c2)cc1OC | -9.17 |
| O=c1[nH]c(=O)n(C2CCCO2)cc1Br (stereo not shown) | 6.76 |
| O=C(CCNC(=O)c1ccccc1Cl)Nc1nnc(C2CC2)s1 | 26.4 |
| Cc1ccc(-c2nc3ncccn3c2Nc2ccc3c(c2)OCCO3)cc1 | 12.1 |
| O=C(CS(=O)(=O)c1ccccc1)N1CCCCCC1 | -4.14 |
| COc1ccc(C(=O)NC(=O)N2CCCCC2)cc1 | 6.27 |
| Cc1cc2c(cc(C(=O)O)n2C)s1 | 3.57 |
| NCCNc1ccc2nnnn2n1 | 38.7 |
| Cc1ccc(-c2cc(C(=O)NC3CCN(Cc4ccccc4)CC3)c3ccccc3n2)cc1 | 7.42 |
| COc1cccc(C(=O)Oc2cc3c4c(c2)C(C)=CC(C)(C)N4C(=O)C3=O)c1 | -2.41 |
| O=C(N/C(=C\c1ccc([N+](=O)[O-])cc1)C(=O)N1CCCCC1)c1ccccc1 | -76.9 |
| COc1ccc(NC(=O)C2CCCN(c3nn4c(=O)cc(C)nc4s3)C2)cc1 (stereo not shown) | -33.1 |
| COc1ccc(C(=O)N/N=C/c2cc3ccccc3[nH]c2=O)cc1 | 11.8 |
| CCc1cccc2c(-c3csc(=NC)n3C)c[nH]c12 | -44.2 |

| Structure (SMILES) | hERG current change (%, negative = inhibition) at 10uM [%] |
| --- | --- |
| NNC(=O)c1nn(-c2ccc(Cl)cc2)cc1O | -30.2 |
| CC1CC(C)CN(S(=O)(=O)c2ccc(Oc3ccc([N+](=O)[O-])cc3)cc2)C1 (stereo not shown) | -9.72 |
| COC(=O)C(=C/C=C/c1ccco1)C(=O)OC | 10.7 |
| COc1ccccc1CNC(=O)C12CC3CC(CC(C3)C1)C2 | 10 |
| COc1ccc(C2N(c3ccccc3)CCN2c2ccccc2)cc1O | 11.2 |
| Cc1noc(NS(=O)(=O)c2ccc(NC(=O)CSc3nc4c(cc3C#N)CCCC4)cc2)c1C | 12.5 |
| COc1ccc(-c2nnc(NC(=O)c3ccc(S(=O)(=O)N4CCc5ccccc5C4)cc3)o2)cc1 | 12.7 |
| COC(=O)c1ccsc1NC(=O)c1ccc(Cl)s1 | 12.3 |
| O=C(N/N=C/C=C/c1ccccc1)c1ccncc1 | -14.9 |
| C/C(CCC(=O)OC[C@H]1O[C@H](C#Cc2ccccc2)C=C[C@@H]1Oc1ccc(C)cc1)=N\OC[C@@H](O)[C@H]1O[C@@H]2OC(C)(C)O[C@@H]2[C@H]1O | -19.2 |
| COc1ccccc1S(=O)(=O)Nc1ccc(-c2nnc3n2CCCCC3)cc1 | -2.31 |
| Clc1ccc(-n2cnnn2)cc1 | -3.56 |
| O=C(CCc1nc2ccccc2c(=O)[nH]1)N1CCCc2ccccc21 | 3.11 |
| Cc1ccc2nc(-c3cccnc3)c(NC3CCCC3)n2c1 | -19.7 |
| CCOc1cc(S(=O)(=O)N2CCOCC2)ccc1F | 7.2 |
| O=C(c1ccc(Cl)c(S(=O)(=O)N2CCOCC2)c1)N1CCN(c2ccccc2)CC1 | -20.1 |
| Cc1nnc(SCc2nnc(-c3ccccc3Br)o2)s1 | 22.1 |
| CCCCNC(=S)N1CCN(CC)CC1.O=C(O)C(=O)O | 6.9 |
| Cc1ccc(SCc2nc3ncccn3c2Br)cc1 | -68 |
| Cc1ccc(NC(=O)c2ccc(S(=O)(=O)N3CCCC3)cc2)cc1 | -2.68 |
| C/C(=N/OC(=O)c1ccc(C)cc1)C(=O)c1ccc(Br)cc1 | 20.5 |
| COc1ccccc1OCC(=O)NNC(=S)NC(=O)c1ccco1 | -0.285 |
| Cc1ncc(CN2CCCC(C(=O)c3cccc(OC(C)C)c3)C2)s1 (stereo not shown) | -18.9 |

| Structure (SMILES) | hERG current change (%, negative = inhibition) at 10uM [%] |
| --- | --- |
| CC(C)Sc1nnc(-c2ccc(S(=O)(=O)N3CCOCC3)cc2)n1C | 18.7 |
| CCOC(=O)NC(=O)c1cn(Nc2ccccc2C(F)(F)F)c(=O)[nH]c1=O | 6.35 |
| C/C(CC(=O)Nc1ccc(N(C)C)cc1)=N\NC(=O)c1ccc(Cl)cc1 | -13.9 |
| N#C/C(=C/Nc1ccccc1F)S(=O)(=O)c1ccc(Cl)cc1 | 26.8 |
| COc1ccccc1C(=O)Nc1ccc(Br)cc1C | 43.8 |
| C=CCN(c1ccccc1)S(=O)(=O)c1cccc(C(=O)Nc2cc(C)ccn2)c1 | -17.8 |
| Cc1ccccc1-c1nc(CN2CCN(C(=O)c3ccco3)CC2)c(C)o1 | -5.18 |
| COc1ccc(OCc2cc(C(=O)NCCN3CCCc4ccccc43)no2)c(Cl)c1 | -1.86 |
| CCOC(=O)CN1C(=O)C(=O)N(Cc2ccccc2)C1=O | 9.88 |
| CC(=O)Nc1ccc(S(=O)(=O)CCC#N)cc1 | 0.121 |
| O=C(c1ccccc1Cc1ccccc1)N1CCN(S(=O)(=O)c2ccccc2Br)CC1 | 0.908 |
| COCCCn1c(=O)c2ccccc2n(Cc2ccc(C)cc2)c1=O | -4.82 |
| COCC(=O)Nc1ccc(OCc2ccccc2)cc1 | -8.22 |
| COC(=O)NCCc1cc(OC)c(OC)cc1S(=O)(=O)N1CC(=O)Nc2ccccc21 | 12.6 |
| COc1ccc(CCNC(=O)c2cc(-c3ccccc3)c(N3CCOCC3)s2)cc1OC | -13.3 |
| CCOc1ccc2nc(Cl)c(CN(C(C)=O)C3CCCCC3)cc2c1 | -0.442 |
| COc1ccccc1NC(=O)COC(=O)c1ccc2c(c1)nc(C)n2-c1ccccc1 | -5.86 |
| Cc1ccc(-c2n[nH]c(=O)c3ccccc23)cc1N | 5.75 |
| CCC(C)[C@H](NC(=O)NCCCN1CCOCC1)C(=O)OC (stereo partly shown) | 12 |
| CC1(C)CC(=O)C(C(=O)c2ccccc2)C(=O)C1 | -4.2 |
| O=C(/C=C/c1ccccc1)N1c2ccccc2Sc2ccc(C(F)(F)F)cc21 | 10.5 |
| Cc1cc(OC(C)C(=O)Nc2ccccc2C(=O)N2CCCC2)ccc1Cl (stereo not shown) | -16.7 |
| Cc1noc(C)c1CSc1ccccc1C(=O)N(C)CC(=O)Nc1cccc(F)c1 | -7.17 |

| Structure (SMILES) | hERG current change (%, negative = inhibition) at 10uM [%] |
| --- | --- |
| Cn1cccc1Cc1nnc(SCC(=O)Nc2ccc(F)cc2)n1-c1ccc(F)cc1 | -21.2 |
| Cn1nnc(NC(=S)NC(=O)c2cccs2)n1 | -0.112 |
| COc1ccccc1CNC(=O)CN1CCC(n2cnc3cc(F)ccc32)CC1 | -66 |
| COc1ccc(Cc2nnc(NC(=O)Nc3ccccc3F)s2)cc1 | 10.2 |
| CC(SC1=NCCS1)C(=O)Nc1nnc(-c2ccc(Cl)cc2)s1 (stereo not shown) | 6.53 |
| COc1ccc(C(CC(=O)N2CCOCC2)c2c(OC)cc(OC)c3c(-c4ccccc4)cc(=O)oc23)cc1 (stereo not shown) | 12 |
| CC(NC(=O)CN(C)CC(=O)Nc1cccc(F)c1)c1ccccc1 (stereo not shown) | 1.29 |
| CCOc1ccc(C(=O)Nn2cnnc2)cc1 | 2.29 |
| CCCCC(=O)NC(=S)Nc1ccc(NC(=O)C(C)C)c(OC)c1 | 21.2 |
| COc1ccccc1Oc1nc(C)c(C(C)=O)cc1C#N | 14.8 |
| CCN(CC(=O)Nc1c(F)cccc1F)C(=O)CCN1C(=O)C2CC=CCC2C1=O (stereo not shown) | 9.67 |
| O=[N+]([O-])c1ccc(N2CCC(O)CC2)nc1 | 2.54 |
| CCc1ccc(NC(=S)N(Cc2ccccc2)Cc2ccccn2)cc1 | -14.3 |
| Cl.O=C(c1ccc(COc2ccccc2Cl)o1)N1CCN(Cc2ccc3c(c2)OCO3)CC1 | -21.3 |
| Cc1ccc(-n2ccnc2SCC(=O)O)c(C)c1 | 17.3 |
| Fc1ccc(Cn2nnnc2CN2CCN(C3CCCC3)CC2)cc1 | -49.1 |
| Cc1ccc(-n2c(SCCN)nnc2-c2cccc(C)c2)cc1.O=C(O)C(=O)O | -38 |
| O=C(CC(O)(c1ccccc1)C(F)(F)F)c1cccs1 (stereo not shown) | -14.4 |
| COCCCNc1nc(N)c([N+](=O)[O-])c(N2CCCCCC2)n1 | 14 |
| Cc1nn(C(C)C)c(C)c1CN1CCCC(CCC(=O)NCc2ccccc2F)C1 (stereo not shown) | 0.286 |
| CCCC(=O)Nc1ccc2c(c1)nc1n2CCSC1 | -6.26 |
| Cl.Oc1ccccc1Nc1nc(NCc2ccccc2)c2ccccc2n1 | -1.42 |
